Data taken from PMC12040169 (PLOS Biology, 2025).
The other results are listed elsewhere or left out.

These compounds were tested on T1, C. trachomatis L2/434/Bu expressing GFP (CTL2-GFP). Conditions: total inclusion area; 28.5 h, 10 µM; inhibitor.
T1 construct: L2/434/Bu GFP intracellular growth in HeLa cells
Parameters: species or system HeLa; C. trachomatis total inclusion area by high-content imaging, normalised to DMSO
In short: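 Host cell viability was gauged from Hoechst-stained nuclei counts, while chlamydial growth was taken from total inclusion area and inclusion number per well. Cells were fixed and imaged by high-content microscopy once bulk GFP and resorufin fluorescence had been measured.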
With O=[N+]([O-])c1cc(C(F)(F)F)ccc1N(CCO)CCO [CBK262238] the “% of control remaining” value was 95.7216. In the case of CN(C)C(=O)c1ccc(-c2ncc(OCCN3CCCC3=O)nc2N)cc1 [CBK145184], the “% of control remaining” value is reported as 107.205. For Cc1nn(CCn2cncc2-c2cnn(C)c2)c(C)c1C [CBK281783], the “% of control remaining” value was 118.057. In the case of CCCN1CC(NS(=O)(=O)c2ccnn2CCC)CC1=O (stereo not drawn) [CBK306598], the “% of control remaining” value is reported as 68.7143. O=C(O)c1cc(-c2ccc(/C=C3\SC(=S)N(Cc4cccnc4)C3=O)o2)ccc1Cl [CBK264712] was tested, and the “% of control remaining” value was 100.981. Cc1cn2c(=O)c(C(=O)Nc3ccccc3C)cnc2s1 [CBK287710] was tested, and the “% of control remaining” value was 101.505. In the case of O=C(c1cn2ccccc2n1)N1CCC(c2ccccc2)C1 (stereo not drawn) [CBK281850], the “% of control remaining” value is reported as 94.3021. With Oc1cccc(Sc2cncc(N3CCCC3)n2)c1 [CBK093796] the “% of control remaining” value was 99.3757. For COC(=O)CCc1ccc(S(=O)(=O)N2CCCN(Cc3cccc(C(F)(F)F)c3)CC2)cc1 [CBK062983], the “% of control remaining” value was 80.2978. For CCN(Cc1cccs1)C(=O)NC1CCCc2c1cnn2CCO (stereo not drawn) [CBK305768], the “% of control remaining” value was 100.403. In the case of O=S(=O)(Nc1cccc(O)c1)c1ccc(OC(F)(F)F)cc1 [CBK043822], the “% of control remaining” value is reported as 97.3647. In the case of Cc1ccc2c(C)c(-c3cncn3C(C)CN3CCOCC3)oc2c1 (stereo not drawn) [CBK281796], the “% of control remaining” value is reported as 101.754. CN1CCN(C(=O)CNS(=O)(=O)c2ccc(Br)cc2)CC1 [CBK034478] was tested, and the “% of control remaining” value was 78.7021. With Cc1cc(C)n2nc(CCCOC(=O)c3ccn(C(C)C)n3)nc2n1 [CBK305272] the “% of control remaining” value was 40.4775. For CN(C)C(=O)CN1CCN(CCc2ccccc2)CC1 [CBK126455], the “% of control remaining” value was 97.4629. For COc1ccc(Br)cc1/C=N/NC(=O)CC1C(=O)NN=C1C (stereo not drawn) [CBK263359], the “% of control remaining” value was 90.5731. With COCCOC(=O)C1=C(C)NC2=C(C(=O)CC(c3ccc(OC)cc3)C2)C1c1ccc(F)cc1 (stereo not drawn) [CBK293921] the “% of control remaining” value was 78.4115. For O=C(CSc1nnc(Cc2cccc3ccccc23)n1-c1ccccc1)NC1CC1 [CBK267382], the “% of control remaining” value was 108.228. For CCC(C)(NC=O)C(=O)Nc1ccccc1C(=O)O (stereo not drawn) [CBK287177], the “% of control remaining” value was 90.2901. With COc1ccc(S(=O)(=O)N2CCC(C(=O)N3CCN(Cc4ccc5c(c4)OCO5)CC3)CC2)cc1Cl [CBK267614] the “% of control remaining” value was 100.588. With COc1ccc(C(=O)Nc2nc3ccc(NC(C)=O)cc3s2)cc1OC [CBK287311] the “% of control remaining” value was 103.143. For O=C(CSc1ccc2nnc(-c3ccccc3)n2n1)Nc1nccs1 [CBK287516], the “% of control remaining” value was 68.3894. With CC(C)NC(=O)[C@H]1O[C@H](CCN2CCN(c3ccccc3)CC2)CC[C@@H]1O [CBK288719] the “% of control remaining” value was 100.531. For Cc1cc(=O)n2c3c(cc(S(=O)(=O)NCC4CCCO4)cc13)CC2 (stereo not drawn) [CBK307595], the “% of control remaining” value was 47.0497. With CCCS(=O)(=O)n1ccn(-c2cccc(C(F)(F)F)c2)c1=O [CBK106585] the “% of control remaining” value was 88.7058. In the case of N#Cc1ccc(CN2CCOC3(CCN(C(=O)OCc4ccccc4)CC3)C2)cc1 [CBK161103T], the “% of control remaining” value is reported as 35.4565. For CCCc1ccc(S(=O)(=O)n2ccn(-c3ccc(Oc4ccccc4)cc3)c2=O)cc1 [CBK106648], the “% of control remaining” value was 93.7995. In the case of O=C(CSc1ncnc2ccccc12)NCc1ccco1 [CBK287509], the “% of control remaining” value is reported as 90.855. Cc1ccccc1OCc1nnc(SCC(=O)N2CCOCC2)n1C [CBK265850] was tested, and the “% of control remaining” value was 84.9816. COc1ccc(C(c2ccccc2C)N(C)C(=O)C2CCNCC2)cn1 (stereo not drawn) [CBK074124] was tested, and the “% of control remaining” value was 35.272. For O=C(O)COc1ccc(Br)cc1C(c1c[nH]c2ccccc12)c1c[nH]c2ccccc12 [CBK265720], the “% of control remaining” value was 105.364. With Brc1ccc(Nc2ncnc3[nH]cnc23)cc1 [CBK287386] the “% of control remaining” value was 101.622. For Cc1cc([N+](=O)[O-])cc[n+]1[O-] [CBK261014], the “% of control remaining” value was 70.7263. CC(C)(C)OC(=O)N1CCC[C@H]1C(=O)c1cccnc1 [CBK284280] was tested, and the “% of control remaining” value was 41.6692. COc1ccc(-c2cc(C(=O)N3CCC(S(C)(=O)=O)C3)cnc2-c2ccccc2)cn1 (stereo not drawn) [CBK036706] was tested, and the “% of control remaining” value was 120.185. With Cc1nc(C2CN(c3ccnc4c(F)cccc34)CCO2)no1 (stereo not drawn) [CBK304464] the “% of control remaining” value was 16.9741. Cc1ccc(-c2ncc(OCCN(C(C)C)C(C)C)nc2N)cc1C [CBK145150] was tested, and the “% of control remaining” value was 100.325. With O=C1CSC2(C(=O)Nc3ccccc32)N1c1ccc([N+](=O)[O-])cc1 (stereo not drawn) [CBK026035] the “% of control remaining” value was 78.2. Cc1[nH]nc2nc(-c3cc(Br)ccc3O)cc(C(=O)O)c12 [CBK286834] was tested, and the “% of control remaining” value was 132.287. In the case of O=S(=O)(Nc1nnn[nH]1)c1cccc(C(F)(F)F)c1 [CBK062377], the “% of control remaining” value is reported as 103.769. For Cc1ccc2nc(-c3ccc4c(c3)CC(C)N4S(C)(=O)=O)cn2c1 (stereo not drawn) [CBK285184], the “% of control remaining” value was 89.2205. With O=C(O)CCc1nc2[nH]c(C(F)F)cc(=O)n2n1 [CBK286880] the “% of control remaining” value was 87.5929. With c1ccc(-c2nnc(-c3ccco3)c(-c3ccco3)n2)cc1 [CBK286196] the “% of control remaining” value was 138.499. COc1ccc(CN2C(=O)CC3(C2=O)C(=O)N(C)c2ccccc23)cc1OC (stereo not drawn) [CBK075450] was tested, and the “% of control remaining” value was 91.791. CC(C)C(=O)N1CC2(CCN(Cc3ncc[nH]3)CC2)c2ccccc21 [CBK126731] was tested, and the “% of control remaining” value was 76.61. COc1ccc(CCNC(=O)CSC(C)C(=O)O)cc1 (stereo not drawn) [CBK297493] was tested, and the “% of control remaining” value was 104.106. For CC(=O)Nc1ccc(S(=O)(=O)NC2(C(F)(F)F)NC(=O)N(c3ccc(Cl)cc3)C2=O)cc1 (stereo not drawn) [CBK267689], the “% of control remaining” value was 121.228. For COc1ccc(OC(=O)c2cc(S(=O)(=O)N3CCCCCC3)ccc2Cl)cc1 [CBK264562], the “% of control remaining” value was 110.864. With Cc1ccc2nc(SCC(=O)Nc3ccccc3Br)c(C#N)cc2c1 [CBK068169] the “% of control remaining” value was 91.4327. In the case of O=C(NO)c1nccnc1-c1ccc(COc2ccccc2)cc1 [CBK050841], the “% of control remaining” value is reported as 102.191. In the case of O=C(CN1CCC(Oc2nccnc2OCc2ccc(Cl)c(Cl)c2)CC1)Nc1ccccc1 [CBK153783], the “% of control remaining” value is reported as 69.5433.
